# The supplement of paper PMC10338343
# ± gives the standard deviation. The entries are a selection whose mix differs from that of the whole data set.
# Test system: MIWI (PIWIL1) piRISC loaded with piRNA #1 (30 nt)
# Experiment: pre-steady-state target cleavage rate (min^-1); MIWI and MILI are mouse PIWI proteins and EfPiwi is from a freshwater sponge; tags in brackets are library labels; higher = faster piRNA-guided slicing of the target
# Settings: guide: piRNA #1 5'p-UGAGGUAGUAGGUUGUAUAGUAUCCAGAGG; auxiliary factor: 500 nM mouse GTSF1
# Procedure, shortened: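 In Cleave-'n-Seq, a transcribed, DNA-blocked target RNA library (0.1 nM) was combined with 1 nM active affinity-purified piRISC bearing one synthetic guide, with or without 500 nM GTSF1 partner protein. Reactions ran in HEPES–potassium acetate buffer at 33 °C for 0–8 or 0–960 min. Uncleaved targets were sequenced and normalised to depth and to weakly complementary targets, three trials were pooled, and k3 was capped at 0.0001 min^-1. The pre-steady-state cleavage rate was obtained by fitting a burst-and-steady-state model.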
row,Sequence,pre-steady-state target cleavage rate
1,GGACUGCAUACUAUACAACCUACUUCCUCA,0.00834 ± 0.0022
2,GCUCUCGAUACUAUACAACCUACUACCUGA,1.07 ± 0.11
3,GGAGACCUUACUAAACAACCUACUACCUCA,0.834 ± 0.074
4,GGAGAGGAUAGUAUACAACGUACUACCUCA,0.00683 ± 0.0029
5,GGAGAGGAUACUAUACAAGCUACAACCUCA,0.296 ± 0.04
6,GGACUGGAAACUAUACAACCUACUACCUGA,0.467 ± 0.1
7,GGAGAGGUUACAAUACAACCUACUACCUCA,1.09 ± 0.07
8,CCUCUGCAUACUAUACAACCUUCUACCUCA,0.678 ± 0.035
9,GGAGACGUUACUAUACAACCUUCUACCUCA,0.622 ± 0.036
10,GGAGACCUAUGUAAUACAACCUACUACCUCA,0.00453 ± 0.0039
11,GGAGACCUAUGUUAUACAACCUACUACCUCA,0.996 ± 0.11
12,GGAGACGAUUCUAUACUACCUACUACCUCA,1.11 ± 0.1
13,GGAGACGAAACUAUACAACCUACUACGUCA,0.691 ± 0.072
14,GGUCUGGAUACUAUACAACCCACUACCUCA,0.631 ± 0.034
15,CCUCUGGAUACAAUACAUCCUACUACCUCA,1.56 ± 0.11
16,GGAGAGGAUACUAUACAACCUACAUGCUCA,0.123 ± 0.028
17,CCUCUGGAAACAAUACAACCUACUACCUCA,1.75 ± 0.11
18,GGUCUGGAUACUAUACAACCUACUAGCCUCA,0.606 ± 0.081
19,GGAGACCUUACUAUACAACCAAGUACCUCA,0.0056 ± 0.0029
20,GGAGACCUUACAAUACAACCUAGUACCUCA,0.159 ± 0.032

row,Sequence,pre-steady-state target cleavage rate
1,GGACUCCUUACUAUACAACCUACUACCUCA,1.59 ± 0.12
2,GGAGACCUAUGUAUACAACCUACUACUCA,0.00349 ± 0.0019
3,GGUCUGGAUACUAUACAACCUCCUACCUCA,0.852 ± 0.044
4,GGAGACGAUUCUAUACAACCUACUACCUCA,1.77 ± 0.11
5,GGAGUCGAUACUAUACAUCCUACUACCUCA,1.45 ± 0.081
6,CCUCUGGAUACUAUACAACCUACUAACUCA,1.5 ± 0.095
7,GGAGUGGAUACUAUUCAACCUACUAGCUCA,0.0654 ± 0.015
8,GCUCUCGAUAGUAUACAACCUACUACCUCA,1.95 ± 0.13
9,CCACUGGAUACUAUACAUCCUACUACCUCA,1.91 ± 0.11
10,GGACUCGAUACUAUACAACGUACUACCUCA,0.894 ± 0.054
11,GGAGACGAUACUAUACAUCGUACUACCUCA,0.328 ± 0.029
12,GGAGACCUUACUAUACAACCUACUACGACA,0.655 ± 0.062
13,GGAGUGGUUACUAUACAACCUACUACCACA,0.427 ± 0.039
14,GGAGUGGAUACUAUUCAACCUACUACCUGA,0.347 ± 0.06
15,GGAGACGAUACUAUACAACCUACUACACUCA,0.855 ± 0.08
16,CCUCUGGAUGCUAUACAACCUACUACCUCA,2 ± 0.13
17,GGAGACGAUACAAUACAACCUACUACGUCA,0.858 ± 0.073
18,GGAGACCUUACUAUACAACCUACUACUCA,0.924 ± 0.088
19,GGAGACCAUACUAUACAACCUACAUGCUCA,0.144 ± 0.036
20,GGAGACCUUACUAUACAACCUACUACCUAA,1.49 ± 0.11
